# Experimental data taken from PubChem BioAssay AID504845 (National Center for Advancing Translational Sciences (NCATS), 2011).
# Several values for one entry are separate records, joined by “and”; a condition that tells them apart may be missing. Identical values can stand only once. Screen size: about 390,000 compounds; about 150 (0.038%) were called active. Inconclusive means that the source gave no clear call. Such entries were picked first, then a sample of the others. Calls come from the whole dose curve; as a rule, active = well fitted inhibition curve with a large enough effect; inconclusive = small, poorly fitted or top-dose-only effect; inactive = no such curve, though single readings can be large or run the other way. A potency beside an inconclusive call is a rough fit, not a confirmed value.
# Target: Regulator of G-protein signaling 4 (Homo sapiens) (UniProt P49798)
# Test: Inhibitors of Regulator of G Protein Signaling (RGS) 4: qHTS; note: nearly all actives have a fitted effect of over 75% in size
# Details: Transcreener GDP fluorescence polarization, RGS4-accelerated GTP hydrolysis; series mostly up to 114 µM
# How it was run: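 MLSMR compounds (23 nl, pin-transferred) preincubated 10 min at room temperature with a 500nM (2x) first reagent, then RGS4 at 900nM (2x) plus Transcreener GDP mix added; fluorescence polarization (620/688 nm) read before and after 90 min at 30 °C.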
# % is set by controls: 0 for no effect and ±100 for the full control effect; potency is the fitted concentration of half-maximal effect; tags give direction and shape of the fitted curve.
# Sequence of UniProt P49798 (P49798 whole entry, looked up): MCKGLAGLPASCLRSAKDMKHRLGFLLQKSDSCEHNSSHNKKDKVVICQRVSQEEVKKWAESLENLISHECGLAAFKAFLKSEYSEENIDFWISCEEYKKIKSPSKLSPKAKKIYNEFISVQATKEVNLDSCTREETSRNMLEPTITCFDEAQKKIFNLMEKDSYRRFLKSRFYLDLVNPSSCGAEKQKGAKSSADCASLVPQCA
Structure (SMILES),Potency,"activity change, negative = inhibition"
COCCN1C(=O)N[C@@H](c2cccc(C(F)(F)F)c2)C(C(=O)OC)=C1C,"inconclusive: 50.1 µM [inhibitor, partial curve, poor fit]",–
O=[N+]([O-])c1ccccc1/C=N/n1c(C2CCCCC2)n[nH]c1=S,"inconclusive: 50.1 µM [inhibitor, partial curve, poor fit]",–
S=c1[nH]nc(COc2ccccc2)n1/N=C/c1ccccc1Cl,"inconclusive: 89.1 µM [inhibitor, partial curve, poor fit]",–
COc1cccc(CNC(=O)CCNS(=O)(=O)c2ccc(Br)s2)c1,"inconclusive: 17.8 µM [inhibitor, full curve, poor fit]",–
Cc1nc(Cl)cc(CS(=O)(=O)c2ccc(Cl)cc2)n1,"inconclusive: 89.1 µM [inhibitor, single point]",–
CCCCn1c(-c2ccc(OC)cc2)nc2c(=O)n(C)c(=O)[nH]c21,"inconclusive: 31.6 µM [inhibitor, full curve, poor fit]",–
O=S(=O)(NCCSCc1ccc(Cl)cc1Cl)c1ccc2c(c1)OCCO2,"inconclusive: 79.4 µM [inhibitor, partial curve, poor fit]",–
O=[N+]([O-])c1cc(Br)cc(C=Nc2ccc3c(c2)OCO3)c1O,"inconclusive: 79.4 µM [inhibitor, partial curve, poor fit]",–
Cc1cccc(NS(=O)(=O)c2ccc3c(c2)[C@H]2C=CC[C@H]2[C@@H](c2ccc(F)cc2)N3)c1,inactive,–
O=c1[nH]c2cc3c(cc2cc1CN(Cc1ccccc1)Cc1nnnn1Cc1ccco1)OCCO3,"inconclusive: 79.4 µM [inhibitor, partial curve, poor fit]",–
COc1ccc(S(=O)(=O)N2CCN(C(=O)c3cc(-c4ccccc4OC)n[nH]3)CC2)cc1,inactive,–
Cc1cccc(-n2c(-c3ccccc3)c[nH]c2=S)c1C,"inconclusive: 79.4 µM [inhibitor, partial curve, poor fit]",–
CCc1ccc(OCCNC(=O)c2ccccc2SCc2ccc(F)cc2)cc1,"inconclusive: 79.4 µM [inhibitor, partial curve, poor fit]",–
CCOc1cc(/C=C2/NC(=O)NC2=O)cc(Br)c1OCc1ccc(C(=O)O)cc1,"inconclusive: 79.4 µM [inhibitor, partial curve, poor fit]",–
COc1ccc(C(=O)NC(=S)NC(C)c2ccccc2)cc1 (configuration not stated),"inconclusive: 50.1 µM [inhibitor, partial curve, poor fit]",–
Cc1cc2c(cc1C)[n+](C)cn2CC(O)COCC1CC=CCC1 (configuration not stated),"inconclusive: 79.4 µM [inhibitor, single point]",–
CC1CCN(C(=O)c2ccc(COc3ccccc3Cl)o2)CC1,"inconclusive: 70.8 µM [inhibitor, single point]",–
CN1c2ccccc2-c2nc3ccccc3n2C1c1ccccn1 (configuration not stated),inactive,–
Cc1ccc2c(=O)oc(N(C)C)nc2c1,"inconclusive: 56.2 µM [inhibitor, partial curve, poor fit]",–
CCN(CC)C(=O)[C@H]1C[C@H](CC(=O)NCCC2=CCCCC2)C(=O)N2CCc3c([nH]c4cc(CCC(=O)N(C)C)ccc34)[C@]12C,inactive,–
COc1ccc(CCNC(=O)c2cccnc2)cc1,inactive,–
N/C(=N\OC(=O)c1ccccc1Cl)c1ccccn1,inactive,–
Cc1cc(N)c2cc(NC(=O)/C=C/c3ccccc3Cl)ccc2n1,"inconclusive: 50.1 µM [inhibitor, partial curve, poor fit]",–

Structure (SMILES),Potency,"activity change, negative = inhibition"
O=C1ON=C(c2ccccc2)/C1=C/c1ccccc1,"inconclusive: 31.6 µM [inhibitor, full curve, poor fit]",–
CCOC(=O)CC(=O)CSc1ccc2nnc(-c3cccc(F)c3)n2n1,inactive,–
CC(=O)NS(=O)(=O)c1ccc(NC(=O)/C=C/c2ccc(C)o2)cc1,"inconclusive: 17.8 µM [inhibitor, full curve, poor fit]",–
C=CCn1c(SCC(=O)c2cccs2)nc2sc(C)cc2c1=O,inactive,–
O=C1C(Cl)=C(NCCc2ccccc2)C(=O)c2ccccc21,"inconclusive: 31.6 µM [inhibitor, full curve, poor fit]",–
O=C(Nc1cccnc1)c1ccccc1O,inactive,–
O=C(O)CCC(=O)Nc1ccc(NC(=O)c2ccc(Cl)cc2Cl)c(Cl)c1,"inconclusive: 50.1 µM [inhibitor, partial curve, poor fit]",–
O=c1c2ccccc2sn1-c1ccc(S(=O)(=O)N2CCCCC2)cc1,"inconclusive: 100 µM [inhibitor, partial curve, poor fit] and inconclusive: 112 µM [inhibitor, partial curve, poor fit]",–
CC(=O)C1CCCN(C(=O)c2ccc3oc(CCc4ccccc4)nc3c2)C1 (configuration not stated),inactive,–
Cn1nccc1NC(=O)CSCC(=O)O,inactive,–
Cc1cccn2c(=O)c3cc(C(=O)NC4CCCC4)n(C)c3nc12,"inconclusive: 112 µM [inhibitor, partial curve, poor fit]",–
CC(C)Oc1ccc(CNC(=O)c2ccc(NC(=O)N3CCSc4ncccc43)cc2)cc1,inactive,–
COc1ccc2nc(NC(=O)C3CCN(S(=O)(=O)c4cccs4)CC3)sc2c1,inactive,–
COc1ccc(C(=O)Nc2nc3c(s2)CCc2cc(OC)ccc2-3)cc1,"inconclusive: 44.7 µM [inhibitor, partial curve, poor fit]",–
Cc1ccc(NC2=C(C(=O)c3ccccc3)N(C)S(=O)(=O)c3ccccc32)cc1,inactive,–
CC(=O)Nc1ccc(SCCN2CCN(C)CCC2=O)cc1,inactive,–
C#CCOCCOCCOCCNc1nc(N2CCOCC2)nc(N2CCN(C(=O)CCCCCCCCCCNC(=O)[C@H](CO)n3cc(CCCSC)nn3)CC2)n1,"inconclusive: 79.4 µM [inhibitor, partial curve, poor fit]",–
NS(=O)(=O)c1ccc(NC(=S)N2CCN(C(=O)C3CCCO3)CC2)cc1 (configuration not stated),"inconclusive: 35.5 µM [inhibitor, partial curve, poor fit]",–
CCOC(=O)C(C)/C(C)=N/NC(N)=S (configuration not stated),inactive,–
CN(C1CCCCC1)S(=O)(=O)c1ccc(=S)[nH]c1,"inconclusive: 50.1 µM [inhibitor, partial curve, poor fit]",–
O=C1N=c2ccccc2=C1c1sc(Nc2ccc(O)cc2)nc1O,"inconclusive: 39.8 µM [inhibitor, partial curve, poor fit]",–
CCCc1cc(C(=O)Nc2sc(C(C)=O)c(C)c2C(=O)OCC)no1,"inconclusive: 31.6 µM [inhibitor, partial curve, poor fit]",–
COc1cc(OC)cc(C(=O)NNC(=O)c2cc3ccccc3cc2O)c1,"inconclusive: 89.1 µM [inhibitor, partial curve, poor fit]",–

Structure (SMILES),Potency,"activity change, negative = inhibition"
CN1CCN(C(=O)c2cc(COc3ccc(F)cc3Cl)on2)CC1c1ccccc1 (configuration not stated),inactive,–
O=C(N/N=C/c1sc(N2CCOCC2)nc1-c1ccccc1)c1ccccc1Cl,"inconclusive: 50.1 µM [inhibitor, partial curve, poor fit]",–
CN(CCOC(=O)c1ccc2c(c1)OCCO2)C(C)(C)C,"inconclusive: 70.8 µM [inhibitor, partial curve, poor fit]",–
CCc1ccc(NC(=O)C(=O)NCC(c2ccc3c(c2)OCO3)N2CCOCC2)cc1 (configuration not stated),inactive,–
C=CCOc1ccc2ccccc2c1CNCCCN1CCOCC1,inactive,–
CCCc1nnc(NC(=O)Cn2c(=O)oc3ccccc32)s1,"inconclusive: 56.2 µM [inhibitor, partial curve, poor fit]",–
CC(C)C(c1nnnn1Cc1cccs1)N1CCN(C(=O)c2ccco2)CC1 (configuration not stated),"inconclusive: 50.1 µM [inhibitor, partial curve, poor fit]",–
N#Cc1ccc(N=c2ssnc2Cl)cc1,"inconclusive: 44.7 µM [inhibitor, partial curve, poor fit]",–
Cc1ccc2c(CN3CCCCC3CCO)cc(=O)oc2c1 (configuration not stated),inactive,–
CC(=O)NNC(=S)NC(=O)c1cccc([N+](=O)[O-])c1,inactive,–
O=C(CCl)N1CCCC1c1ccc2c(c1)OCCO2 (configuration not stated),"inconclusive: 28.2 µM [inhibitor, full curve, poor fit]",–
CCN(CC(=O)Nc1ccc2c(c1)OCCO2)Cc1cc(=O)oc2c(C)c(C)ccc12,"inconclusive: 100 µM [inhibitor, single point]",–
O=C(CSCC(=O)N1CCCCC1)Nc1nc(-c2ccccc2)c(-c2ccccc2)s1,inactive,–
COc1ccccc1OCC(O)CN1C(=O)NC(C)(C)C1=O (configuration not stated),"inconclusive: 44.7 µM [inhibitor, partial curve, poor fit]",–
COc1ccc(-n2nc3c(c2NC(=O)CBr)CSC3)cc1,"inconclusive: 79.4 µM [inhibitor, partial curve, poor fit]",–
Cc1noc(C)c1COc1ccc(C(=O)O)cc1,inactive,–
CCCNc1nc2c(c(=O)[nH]c(=O)n2C)n1Cc1cccc(Br)c1,"inconclusive: 100 µM [inhibitor, single point]",–
CCCCCCC(=O)N(O)C1CC(=O)N(c2ccc(Br)cc2)C1=O (configuration not stated),"inconclusive: 56.2 µM [inhibitor, partial curve, poor fit]",–
Cc1ccc(S(=O)(=O)N(CC#N)CC#N)cc1,"inconclusive: 79.4 µM [inhibitor, partial curve, poor fit]",–
Cc1ccnc(NC(=O)CN(C)S(=O)(=O)c2cccc3nsnc23)c1,–,inactive: 8.3% [at 11.4 µM]
NC(CSS(=O)(=O)O)=NCCC12CC3CC(CC(O)(C3)C1)C2,"inconclusive: 31.6 µM [inhibitor, full curve, poor fit]",–
